Data published in PubChem BioAssay AID1030 (National Center for Advancing Translational Sciences (NCATS), 2008).
Hit rate of the full screen: of about 220,000 compounds, about 16,000 (7.3%) were called active. The inconclusive results got no clear call from the source; some entries with a clear call stand among them for comparison. Calls follow the shape of the dose curve; as a rule, active = well fitted inhibition curve with a large enough effect (not every such curve was filed as active); inconclusive = small, poorly fitted or top-dose-only effect, or another doubt; inactive = no such curve, though single readings can be large or run the other way. A potency beside an inconclusive call is a rough fit, not a confirmed value.

These compounds were tested against Aldehyde dehydrogenase 1A1 (Homo sapiens) (UniProt P00352) (assay: qHTS Assay for Inhibitors of Aldehyde Dehydrogenase 1 (ALDH1A1)). Details: Purified ALDH1A1, NADH fluorescence, propionaldehyde substrate; series mostly up to 75.3 µM; activity, negative = inhibition: at the top concentration.
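For activity, negative = inhibition in this document: plate controls were no enzyme wells and a reference inhibitor.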
Potency is read from the fitted curve at half-maximal effect; tags tell the direction and shape of the fitted curve.

Sequence of UniProt P00352 (P00352 whole entry, looked up): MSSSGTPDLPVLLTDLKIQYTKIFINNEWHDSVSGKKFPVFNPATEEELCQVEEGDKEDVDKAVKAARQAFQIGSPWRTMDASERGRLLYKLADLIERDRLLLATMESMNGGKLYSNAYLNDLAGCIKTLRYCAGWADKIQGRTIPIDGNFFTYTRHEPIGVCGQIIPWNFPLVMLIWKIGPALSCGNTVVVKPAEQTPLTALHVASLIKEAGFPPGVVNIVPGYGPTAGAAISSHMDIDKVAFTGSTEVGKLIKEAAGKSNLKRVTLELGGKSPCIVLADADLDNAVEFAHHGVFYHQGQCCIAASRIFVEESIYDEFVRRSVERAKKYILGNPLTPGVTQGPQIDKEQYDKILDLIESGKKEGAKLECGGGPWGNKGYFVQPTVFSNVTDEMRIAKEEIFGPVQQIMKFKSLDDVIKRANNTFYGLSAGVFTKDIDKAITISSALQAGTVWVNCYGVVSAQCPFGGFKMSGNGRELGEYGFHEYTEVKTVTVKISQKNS

Potency, active:
COc1ccc(Nc2nc(N3CCCCC3)c3ccccc3n2)cc1 12.6 µM
COC1=C/C(=C/c2c(N)n3nc(-c4ccc(C)cc4)sc3nc2=O)C=CC1=O 1.12 µM
CCN(CC)C(=O)C1CCCN(Cc2ccccc2C(F)(F)F)C1 (stereo not drawn) 3.55 µM
CCc1cc2c(NC(C(=O)O)C(C)C)ncnc2s1 (stereo not drawn) 15.8 µM
O=C(OCC(=O)c1cccs1)c1ccccc1 12.6 µM
O=C(NC(N1CCCCCC1)C(Cl)(Cl)Cl)c1ccccc1Cl (stereo not drawn) 11.2 µM
CO[C@H]1C[C@@H]2CC[C@@H](C)[C@@](O)(O2)C(=O)C(=O)N2CCCC[C@H]2C(=O)OC([C@H](C)C[C@@H]2CC[C@@H](O)[C@H](OC)C2)CC(=O)[C@H](C)/C=C(\C)[C@@H](O)[C@@H](OC)C(=O)[C@H](C)C[C@H](C)/C=C/C=C/C=C/1C (stereo partly drawn) 17.8 µM
Cc1ccc(N2CCN(/N=C/c3ccccc3[N+](=O)[O-])CC2)cc1 15.8 µM

Potency, inconclusive:
S=C(Nc1ccc2nsnc2c1)N1CCCCC1 31.6 µM [inhibitor, single point]
Cc1ccc(-n2c(=O)cc(N3CCCCCC3)[nH]c2=O)cc1 31.6 µM [inhibitor, single point]
O=C(O)c1c(NC(=O)c2cccc3ccccc23)sc2c1CCC2 20 µM [inhibitor, partial curve]
c1nc2sc3c(c2c2nnnn12)CCC3 35.5 µM [inhibitor, single point]
O=[N+]([O-])c1ccc(Oc2cccc(Br)c2)c2ccncc12 39.8 µM [inhibitor, single point]
CC(=O)c1cc2c(cc1NS(=O)(=O)c1ccc3c(c1)OCCO3)OCO2 20 µM [inhibitor, partial curve]
O=C(CCCc1c[nH]c2ccccc12)N1CCN(c2ccc(N3CCOCC3)nn2)CC1 39.8 µM [inhibitor, single point]
Cc1ccc(C(=O)OCC(=O)Nc2ccccc2N2CCOCC2)cc1 31.6 µM [inhibitor, single point]
Cc1ccc(C)c(S(=O)(=O)Nc2ccccc2C(=O)Nc2cc(C)on2)c1 25.1 µM [inhibitor, partial curve]
CC(Sc1nnc(-c2ccccc2)c(-c2ccccc2)n1)C(=O)Nc1ncc(Cl)cc1Cl (stereo not drawn) 35.5 µM [inhibitor, single point]
COC(=O)C1C(=O)c2c([nH]c(C(=O)OC3CCCC3)c2C)CC1C (stereo not drawn) 11.2 µM [inhibitor, partial curve]
CCc1nnc(NC(=O)c2ccc(Cl)c(S(=O)(=O)N3CCc4ccccc43)c2)s1 31.6 µM [inhibitor, single point]
COC(=O)c1c(N)sc(Cc2ccccc2)c1C 15.8 µM [inhibitor, single point]
O=c1[nH]c2ccc(Cl)cc2c(-c2ccccc2)c1N1CCOCC1 28.2 µM [inhibitor, partial curve]
COc1ccc(-c2cc(N)n(S(=O)(=O)c3ccc(C)cc3)n2)c(OC)c1 39.8 µM [inhibitor, single point]
Cc1cc(N2CCOCC2)nc2ccc(NC(=S)N3CCN(c4ccccc4)CC3)cc12 35.5 µM [inhibitor, partial curve]
COc1cc(/C=C/C(=O)Nc2ccc(N3CCCCC3)c(S(=O)(=O)Nc3ccccc3Cl)c2)cc(OC)c1OC 39.8 µM [inhibitor, single point]
COc1ccc(C2C=C(c3ccccc3)Nc3ncnn32)cc1 (stereo not drawn) 28.2 µM [inhibitor, partial curve]
Cc1ccc2cc(CN(Cc3cccs3)Cc3nnnn3C(C)(C)C)c3nnnn3c2c1 28.2 µM [inhibitor, single point]
O=c1c(-c2cc(F)cc(F)c2)nc2cncnc2n1Cc1ccc(F)cc1 35.5 µM [inhibitor, single point]
Cc1cc(CN(C)Cc2c(C(=O)N3CCCCCCC3)nc3ccc(Cl)cn23)n[nH]1 39.8 µM [inhibitor, single point]
CC(=O)c1ccc(N2CCN(C(=O)COc3ccccc3F)CC2)c(F)c1 39.8 µM [inhibitor, single point]
Cc1cc(/C=C(\C#N)C(=O)NC2CCCCCC2)c(C)n1C 17.8 µM [inhibitor, partial curve]
CCOc1ccc2c(c1)c(N=Nc1cccc(C(=O)O)c1)c(O)n2C 39.8 µM [inhibitor, single point]

activity, negative = inhibition, inactive:
C=CCSc1nnc(NC(=O)COc2ccccc2)s1 9.76%
COc1cccc2c1OC1(C)CC2NC(=O)N1c1cccc(C(=O)N2CCN(c3ccccc3)CC2)c1 (stereo not drawn) 2.02%
Cc1cc(-c2csc(N)n2)c(C)n1-c1ccc(Cl)c(Cl)c1 -15.3%
CC(C)(C)NC[C@@H](O)c1ccc(O)c(CO)n1 5.14% [at 13.5 µM]
CCOc1ccc(S(=O)(=O)n2nnc3ccccc32)cc1C(C)C -4.06%
CSc1nnc2c(n1)OC(C1CC=C(C)CC1)Nc1ccccc1-2 (stereo not drawn) -0.232%
COCCOC(=O)c1c(C)oc2ccc(OS(C)(=O)=O)cc12 -3.22%
Cn1nccc1NC(=O)COCC(=O)O 1.29%
C/C(=N\N=C(N)N)c1ccc(C)c(C)c1 1.35%
CC(C)O/N=C1\C(=O)N(c2ccccc2)c2ccccc21 -0.793%
CC(Sc1nc(-c2ccccc2)cc(C(F)(F)F)n1)C(=O)N1CCCC1 (stereo not drawn) 12%
Cc1csc(NC(=O)CSc2nncc(=O)n2N)n1 8.34%
Cc1cccc(NC(=S)NCCCN2CCOCC2)c1 6.63%
CSc1ccccc1NC(=O)CSCc1ccc(C)cc1 -16.3%
CCO/C(C)=C1\C(=O)Nc2ccccc21 0.433%
COc1cccc(Nc2ncc3nc(-c4cn(C)c5ccccc45)c(=O)n(C[C@H]4CCCO4)c3n2)c1 8.66%
